Laboratory results from the supplement of paper PMC11417369.
± gives the standard deviation of the averaged measurements. Some of the results follow.

test system: PfAP2-EXP AP2 domain (GST-tagged); assay: gcPBM binding intensity (ln(normalized median fluorescence intensity)); higher = stronger DNA binding
How it was run: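 DNA-binding domains from P. falciparum, fused to GST and produced in E. coli, were put on an Agilent 4 × 180k double-stranded probe array for 1 h in 1× PBS holding 1% milk, 0.2 mg/ml BSA, 0.5% salmon testes DNA and 0.03% Triton X-100. Probes were primer-extended, 36 bp long and drawn from intergenic genomic regions, with negative controls included. After Alexa488 anti-GST antibody detection and a 488 nm scan, binding intensity was set as the highest Masliner-normalised natural-log median intensity across replicate spots of either probe orientation.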

| Sequence | gcPBM binding intensity (ln) |
| --- | --- |
| TCGTGTTAAATTTTTACACACAAACTTGCAATAATT [CACACA_site3824] | 8.58 ± 0.31 |
| AACTATAACTAAAAAAATCACATAAAATATTTTATT [TGCATGCA_negctrl_site363] | 7.99 ± 0.42 |
| AGGTGAAAAATATATAATAATGTAACAAAAAAAAAT [XGTACX_negctrl_site394] | 8.9 ± 0.46 |
| TATATCTTATTTAACACACACAAAGAAAATAGAAAA [CACACA_site3732] | 8.76 ± 0.51 |
| AACAATAAAAATAATTGTACAAGTTTAAAAAAAATT [XGTACX_site1987] | 8.64 ± 0.38 |
| TCTTTAAATTTCTCAACACACAGTTATAAAAAATAA [CACACA_site2856] | 8.31 ± 0.42 |
| CATTTAAGACAAATTACACACGTATGCCAAATATAT [CACACA_site431] | 8.83 ± 0.54 |
| TTTTTAATTTCAATGGTGCAGTAATAATATAATAGT | 9.31 ± 0.35 |
| ATATTTTTTTTTGTTAGTACTCATATTTGTAGTTTT [XGTACX_site7280] | 8.8 ± 0.46 |
| AATATATATAATTATAGTACAGAAAATTAAAAAAGA [XGTACX_site2943] | 8.88 ± 0.32 |
| TAGATTTTTTAATGTTGTACAAATATACGATATATA [XGTACX_site3258] | 8.57 ± 0.3 |
| TTGTTTCTCTTTAAAAGTACAAAAATGGTTACATAT [XGTACX_site3109] | 8.46 ± 0.25 |
| ACATCAAGCAGACACACACACACACGCACACGCACA [CACACA_site6309] | 8.65 ± 0.52 |
| ACTATTCATGCATATACACACACATATATATATATT [CACACA_site9309] | 9.11 ± 0.4 |
| TATATATATATATATATATATATATATATATGTTGT [TGCATGCA_negctrl_site24] | 10 ± 0.49 |
| ACTTTAAACAAAAAAAGTACTCTTTAATGAATATAT [XGTACX_site7176] | 8.35 ± 0.4 |
| CAATTTCTCTTAATTTGTACATATATGTTATACAAA [XGTACX_site3231] | 8.61 ± 0.3 |
| CAATATTTTATTTAAGCATGCTCTAGGGTGTAAAAG [TGCATGCA_site1001] | 8.72 ± 0.43 |
| CTCAACAAAATATGAGTGCATTGTTATTACATATAT | 8.68 ± 0.23 |
| AACATTAAAAGGGATACACACATATAAATAAATAAT [CACACA_site489] | 8.85 ± 0.44 |
| TAGATATATAATTTTTGTACGTAGTCGAATCTCAGA [XGTACX_site765] | 8.43 ± 0.34 |
| TTATATATTTCTACTCATATTACAATGTGAGAAATA [CACACA_negctrl_site873] | 8.2 ± 0.38 |
| AAATATATATAAAAGTGTACATTTGTTATAATCAGT [XGTACX_site4822] | 8.79 ± 0.35 |

| Sequence | gcPBM binding intensity (ln) |
| --- | --- |
| CCAACTAAAAAGGAATGTACATAGTTATGGTTGGAA [XGTACX_site8762] | 9.04 ± 0.47 |
| ATCAAAAAAAAAAAAAGTACACAAAATTTTTTATTA [XGTACX_site7986] | 8.45 ± 0.22 |
| ATAATGAACAAAGTAGTGCACTTTCCTTATCTTTTC | 8.94 ± 0.15 |
| AAGGTTTAAAATTACTGTACAAATATAAATAAATAT [XGTACX_site3756] | 8.58 ± 0.35 |
| TATATGTGTGTTATATGTACTTATATATATATATAT [XGTACX_site5570] | 10.1 ± 0.37 |
| TACATATTTAAATACTGTACTCAAAAGAATTGTGCA [XGTACX_site2250] | 8.72 ± 0.2 |
| ACTAATATGTATATATATATATATATATATATATAT [CACACA_negctrl_site141] | 9.96 ± 0.67 |
| TATATTATACTAAGAAGTACAATATTTTTATTGTAA [XGTACX_site2810] | 8.06 ± 0.085 |
| AAATTCCACGAACACACACACATATAAATAAATAAA [CACACA_site6697] | 8.59 ± 0.53 |
| TAGTAAAAACCAAAATGTACATGTGCCATTTTTTTA [XGTACX_site2630] | 8.41 ± 0.35 |
| TATAGTATTCTAAATGCATGTAAATTATGTATATAT [TGCATGCA_site931] | 8.96 ± 0.42 |
| GTTTATCACAGCCACGCACACATAATATCTGTATAT [CACACA_site5929] | 8.77 ± 0.37 |
| GATTATTAATAGTAACGTACATATGTTATAAAATAT [XGTACX_site5277] | 8.72 ± 0.38 |
| CTTATATTGTACAGTACACACCTTTATAATGTTATT [CACACA_site4280] | 8.93 ± 0.35 |
| TAATTTTTCCTTTTTGCACACATTAACGTCGACGAA [CACACA_site4025] | 8.77 ± 0.27 |
| CAATTTATTTTTATTACACACTATCCAAATAATTTC [CACACA_site2956] | 8.5 ± 0.38 |
| AGCATACATATTTTTTGTACATATATATATATATAT [XGTACX_site8536] | 10.2 ± 0.28 |
| TTAAACAATTTAGACATACACACAAAAATAATATTA [CACACA_site385] | 8.51 ± 0.41 |
| AACATACGACAATACGCACACATATATGTACATATT [CACACA_site1917] | 8.78 ± 0.3 |
| TATATAATAATTTAGAGTACTGATAAAATATTCCAT [XGTACX_site6200] | 8.34 ± 0.3 |
| CCATAAAATCATAAGCGTACTTAATATATTTTACTT [XGTACX_site559] | 8.59 ± 0.32 |
| TGCTCCTATTATATAGTGCATTTATTTTAATAAACG | 8.39 ± 0.24 |
| TAATTTATAAAAAATTGTACATTAAACATATATATA [XGTACX_site5164] | 8.45 ± 0.4 |

| Sequence | gcPBM binding intensity (ln) |
| --- | --- |
| AACCTTACACAAGGGGTGCAATATTATTTCGATAAA [GTGCAC_site9600] | 9.21 ± 0.69 |
| TCTTTTCGTTCATGCTGTACTTAATTGCTCTAATTT [XGTACX_site4816] | 9.11 ± 0.52 |
| AAAAAAAAAAAAAGCACACACACATATGTGTATATA [CACACA_site8225] | 8.4 ± 0.36 |
| CCCTGCCTCTCTTTGGTGCGTTGTAACCCTCGAGGA | 8.84 ± 0.46 |
| TGTCTGTGCGGGTGTACACATTTCATATTACCCAAT [CACACA_site5593] | 9.11 ± 0.39 |
| TAAATTGTATATGAGACTATACTATAAAAGTATGAA [XGTACX_negctrl_site22] | 8.26 ± 0.42 |
| AATTAGATACTAACAAGTACATATATATATATATAT [XGTACX_site2252] | 10.2 ± 0.26 |
| ATTTTTTTTTGTGTATATAAATAAATAAATATATAT [GTGCAC_negctrl_site603] | 8.3 ± 0.37 |
| ATTTAGATTAACACTTGTACATAATACATACAAATA [XGTACX_site4147] | 8.37 ± 0.32 |
| TTGTAATTATTAAACACACACAAAATATCTAGAATA [CACACA_site7231] | 8.69 ± 0.46 |
| TTTCCCTAATGAAAGTGTACCTGTGAGAAAAAAAAG [XGTACX_site194] | 8.7 ± 0.4 |
| AAAAGAAAAGAGAGGAGTACAAAATATAATTATCTA [XGTACX_site5172] | 8.68 ± 0.49 |
| CATATTGGTATGCTCATGCACTTTTATTTTGTTATT [GTGCAC_site9553] | 8.79 ± 0.38 |
| AAAAAAAAAAAAAGAACACACACAGTGCACATTCGG [CACACA_site8163] | 8.82 ± 0.3 |
| TGTATATATTAATGTACACACATGCGTATGTTCGTT [CACACA_site3583] | 8.72 ± 0.32 |
| TTATTTATTTATATAGTGCAATAAACACATAAATAG | 8.57 ± 0.014 |
| TATAAATAATAAAGATGTACTTTTTATGATTCCTAC [XGTACX_site7003] | 8.51 ± 0.29 |
| TATAAAAAGCAAAACAAAAAAACAAATTGAAAAATT [TGCATGCA_negctrl_site158] | 8.71 ± 0.73 |
| TTACTACTATATTATACACACATATATTTATTTATA [CACACA_site7274] | 8.7 ± 0.4 |
| TTTTTTATTTTTTTATTGTTTTATTGTTTCATTGTT [XGTACX_negctrl_site128] | 8.59 ± 0.51 |
| CCGTAGTTTTAAAATAGTACTTTTATGGTTAATAAA [XGTACX_site3162] | 8.3 ± 0.42 |
| GTTATAACTCAAATATGTACATATTATAAAACATAT [XGTACX_site6693] | 8.77 ± 0.42 |
| AAAAAAAAAAAAAAAGGTACACAAATACGTCCTGCA [XGTACX_site3354] | 8.78 ± 0.13 |

| Sequence | gcPBM binding intensity (ln) |
| --- | --- |
| TATAAAAATAAGCACACACACAAATATATATTTATT [CACACA_site922] | 8.46 ± 0.45 |
| TTATAGAACTATATTGCACACATAATATATATATAT [CACACA_site9042] | 9.81 ± 0.18 |
| TAATTATAATAAAAAGGTACAGAAAAGTTATACTCA [XGTACX_site6111] | 8.51 ± 0.46 |
| AATTATCAAAGTCTATACATACATACATACATACAT [GTGCAC_negctrl_site243] | 8.95 ± 0.23 |
| CACTCTTAAAATAAGGTGCACTATATAACGTGATTA [GTGCAC_site9422] | 9.42 ± 0.68 |
| ATAAAATAAATAAATATAAATATATATATATATATA [TGCATGCA_negctrl_site358] | 10.2 ± 0.45 |
| TATACATATTTACAAGTGCATAATATTTTACAAAAA | 8.46 ± 0.092 |
| ATATATATGTATGTATGTACTTATTTATTTATTTAT [XGTACX_site7740] | 8.32 ± 0.16 |
| CCAATGAGGATATATACACACATACATTAAAAAAAT [CACACA_site5090] | 8.65 ± 0.69 |
| TAAGAAAAAGGCACACGTACATAATTCAAAATAAAT [XGTACX_site982] | 8.82 ± 0.52 |
| TTTTTTTTCACACATTGTACTTTTTTATAAAATATA [XGTACX_site4351] | 8.85 ± 0.23 |
| ATTTAAATAATATGTACACACATTTAAAAAATTATA [CACACA_site2816] | 8.34 ± 0.33 |
| GTCAACTTGTGATAAGTGCATATATATAATAAAATG | 8.74 ± 0.26 |
| AAAAAAATATAATATTTGAATAAATATAATAATATG [XGTACX_negctrl_site477] | 8.21 ± 0.28 |
| CGAAATAAATCTTATGCACACAAATAATTAATTAAA [CACACA_site8491] | 8.54 ± 0.22 |
| AATATATAGGTATTTACACACAATGTGAGATCTATA [CACACA_site3407] | 8.4 ± 0.48 |
| ATTTATGAAAAGTAAAGTACACACAGGAAAAAAAAA [XGTACX_site3564] | 9.04 ± 0.49 |
| ATATATGTACAAATTGTGCGCAATAATTTTGTCTTT | 8.93 ± 0.28 |
| ATTTTCACCTGAACGGTGCATATTTAATTTTAGGTT | 8.9 ± 0.085 |
| ATATATTATAGAGGTGTGCACTACATACATTATAAT [GTGCAC_site9991] | 9.02 ± 0.23 |
| TCTTTATGTAAGGTCTTCCACAAAAAAATTAAAAAA [TGCATGCA_negctrl_site229] | 8.26 ± 0.47 |
| GAAAAATTAATAAATAAACACACATATATATATATA [CACACA_site8835] | 10.2 ± 0.24 |
